Test results reported in ChEMBL document CHEMBL1201862, “PubChem BioAssay data set” (2004).
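Dose response: 5 concentrations. Exposure: 48 h. Format: 96-well plates. Endpoint: linear interpolation; highest concentration if not reached. GI50: concentration for 50% inhibition of growth.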 Active and inactive are the calls of the source. No stated cut-off is given here; in the data, active = GI50 up to about 1.1 µM and inactive = higher.

tested on: NCI-H322M; test: DTP human tumour cell line panel, 48 h

Row | SMILES | GI50
1 | CC(C)c1ccc2nc3ccc(C(=O)NCCN(C)C)cn3c(=O)c2c1 | inactive: 24.8 µM
2 | CCC(=O)OCc1ccc2oc(=O)c(C(=O)Oc3cncc(Cl)c3)cc2c1 | inactive: 87.3 µM
3 | Sc1ccc2ccccc2c1CNCc1ccccc1 | inactive: 20.9 µM
4 | CN(CC(=O)O)Cc1c(O)c(Cl)cc(Cl)c1Cl | inactive: 10.3 µM
5 | Oc1cccnc1CN1CCCCC1 | inactive: > 100 µM
6 | N#C/C(=C\c1ccc(Cl)cc1)c1nc(-c2cc3ccccc3oc2=O)cs1 | inactive: 83.4 µM
7 | CNC/C(Cl)=N/S(=O)(=O)c1ccc(C)cc1 | inactive: 30.1 µM
8 | CC(C)(C)c1ccc2c(c1)C(=O)c1ccccc1C2=O | inactive: > 100 µM
9 | CC1CCCC(CC(=O)O)(CC(=O)O)C1 (stereo not drawn) | inactive: > 100 µM
10 | CN1CCN(c2ccncc2S(=O)(=O)N2CCN(C)CC2)CC1 | inactive: > 100 µM
11 | O=C(Cn1ccc(=O)[nH]c1=O)Nc1ccc(C(=O)O)c(O)c1 | inactive: > 100 µM
12 | CN(CCO)Cc1ncccc1O | inactive: > 100 µM
13 | N=C(N)/N=C(\N)Nc1ccc(C(=O)O)cc1 | inactive: > 100 µM
14 | OC[C@@H](O)[C@H](O)[C@H](O)[C@@H](O)C1SCCCS1 | inactive: > 100 µM
15 | CC1=C(C(=O)Nc2ccccc2C)C(/C=C/c2ccccc2)C(C(=O)Nc2ccccc2C)=C(C)N1 | inactive: > 100 µM
16 | O=c1[nH]c2ccccc2c(=O)c2cc3ccccc3cc12 | inactive: 26.4 µM
17 | CCC1NCC(=O)c2c1[nH]c1ccccc21 (stereo not drawn) | inactive: > 100 µM
18 | CN1C(c2ccccc2)CC(C)(O)CC1c1ccccc1 (stereo not drawn) | inactive: > 100 µM
19 | O=C1c2cc3c(cc2CC12Cc1cc4c(cc1C2=O)CCCC4)CCCC3 | inactive: > 100 µM
20 | NC(=S)N/N=C\c1nccc2ccccc12 | active: 0.404 µM
21 | CCN(CC)CCNC(=O)c1nn(C)c(=S)[nH]c1=S | inactive: > 100 µM
22 | O=c1c(-c2ccccc2)c(SCCN2CCOCC2)n(-c2ccccc2)c(=S)n1-c1ccccc1 | inactive: > 100 µM
23 | O=c1cnn(C2OC(CO)C(O)C(F)C2O)c(=O)[nH]1 (stereo not drawn) | inactive: > 100 µM
24 | Clc1cc(Cl)c2c(Cl)cc(Cl)c3c2c1N=S=N3 | inactive: 86.3 µM
25 | Nc1nc(CCC(=O)Nc2cccc(C(F)(F)F)c2)cc(-c2cccc3ccccc23)n1 | inactive: > 100 µM

Row | SMILES | GI50
26 | c1ccc(N2CCN(CCCN3CCc4c([nH]c5ccccc45)C3c3cccnc3)CC2)cc1 (stereo not drawn) | inactive: 75.3 µM
27 | C=CCC1(O)c2cccc(O)c2C(=O)c2c(O)cccc21 | inactive: 50.4 µM
28 | COC(=O)C1(C(=O)OC)N=C(C)OC1c1ccccn1 (stereo not drawn) | inactive: > 100 µM
29 | COc1cc(C(CN)N(C)C)cc(OC)c1OC (stereo not drawn) | inactive: > 100 µM
30 | CN(C)/C=N/c1cc(=O)n(C)c(=O)n1C | inactive: > 100 µM
31 | Cc1ccc(O)c(C2=CC3=NNC(=O)C3C(c3cccc(Cl)c3)C2)c1 (stereo not drawn) | inactive: 18.7 µM
32 | Cc1c(C)c2c(c(N)c1C#N)C(=O)N(NC(=O)c1ccccc1)C2=O | inactive: > 100 µM
33 | Cc1ccccc1NC(=O)C(=O)Cc1nc2ccccc2s1 | inactive: > 100 µM
34 | O=C(c1ccccc1F)c1c(NCc2ccccc2)c(=O)c1=O | inactive: > 100 µM
35 | Cc1n(CC(C)C)c2c([n+]1C)C(=O)c1ccccc1C2=O | active: 0.237 µM
36 | COc1ccc2c(=O)c(-c3cc4c(cc3OC)OCO4)coc2c1 | inactive: > 100 µM
37 | COC(=O)c1ccccc1N1C(=O)Cc2ccccc2C1=O | inactive: > 100 µM
38 | C=C([C@@]1(O)C[C@H]2[C@H](CCC2(OC)OC)[C@@H]2c3ccccc3O[C@@H]21)[Si](C)(C)C | inactive: > 100 µM
39 | COC(=O)/C=C/COCC1C2CCC(=O)C21 (stereo not drawn) | inactive: > 100 µM
40 | O=C(Nc1nc(C23CC4CC(CC(C4)C2)C3)cs1)c1cc2cc(Br)cc(Br)c2oc1=O | inactive: > 100 µM
41 | CN(C)Cc1cc(/N=N/c2ccc(Cl)cc2)ccc1O | inactive: 19.1 µM
42 | CC1=CC2=C(C=O)C(=O)[C@](C)(O)[C@@H](O)C2=CO1 | inactive: 41.9 µM
43 | COc1ccc(C(=O)N2CCN(c3ccc4c(c3)OCC(=O)N4)CC2)cc1 | inactive: > 100 µM
44 | O=S(=O)(Nc1ccc2ccc3cccc4ccc1c2c34)c1ccccc1 | inactive: > 100 µM
45 | NNC(=O)C(=O)N/N=C(\CCCC(=O)Nc1ccc(Cl)cc1)CC(=O)c1ccc(F)cc1 | inactive: > 100 µM
46 | C=CCO/N=C(\OC(=O)c1ccc([N+](=O)[O-])cc1)c1ccccc1 | inactive: > 100 µM
47 | CCNC(=O)Cc1nc2c(O)ncnc2n1C1OC(CO)C(O)C1O (stereo not drawn) | inactive: > 100 µM
48 | COC(=O)[C@]12CC[C@H]3CN(C(=O)OCc4ccccc4)[C@H]([C@H]31)[C@H](c1ccccc1)N2 | inactive: > 100 µM
49 | NC(=O)c1ncn(C2CCC(CP(=O)(O)O)C2)c1N (stereo not drawn) | inactive: > 100 µM
50 | Cc1ccc(Cl)c2c(=O)c3ccc([N+](=O)[O-])cc3sc12 | inactive: > 100 µM

Row | SMILES | GI50
51 | Cc1nc2ccccc2n1CCc1nc2ccccc2[nH]1 | inactive: > 100 µM
52 | Cn1c2ccccc2c(=NNc2cccc(C(=O)O)c2)c2ccccc21 | inactive: 16.1 µM
53 | CC1CCN(C(C)C)P(=S)(Cc2ccccc2)O1 (stereo not drawn) | inactive: > 100 µM
54 | CC1Nc2ccccc2NC1C=C(C#N)C#N (stereo not drawn) | inactive: 16.7 µM
55 | CO[C@@](c1ccccc1)(c1nc(C#N)c(N)o1)C(F)(F)F | inactive: > 100 µM
56 | CC(C)CC(NC(=O)C(Cc1ccccc1)NC(=O)[C@H]1CC[C@H](NC(=O)C(Cc2ccc(OC(C)(C)C)cc2)NC(=O)OC(C)(C)C)C1)C(N)=O (stereo partly drawn) | inactive: 40.6 µM
57 | Cc1nc2cn3c(c2c(=O)[nH]1)CCCCC3 | inactive: > 100 µM
58 | COc1ccc(-c2c3c(n(C4OC(CO)C(O)C(O)C4O)c(=S)c2C#N)CCC3)cc1 (stereo not drawn) | inactive: > 100 µM
59 | C1CSC2=C(S1)SC1=C(S2)SC(=C2SC3=C(SC4=C(SCCS4)S3)S2)S1 | inactive: > 100 µM
60 | CSC(CC(=O)O)C(=O)O (stereo not drawn) | inactive: > 100 µM
61 | Cc1coc2c1CC1OC1(C)CCC1OC1(C)C2 (stereo not drawn) | inactive: > 100 µM
62 | CCOC(=O)CCC(NC(=O)c1ccc(Oc2nc3ccccc3nc2-c2ccccc2)cc1)C(=O)OCC (stereo not drawn) | inactive: > 85.5 µM
63 | [O-][S@@+]1c2ccc3ccccc3c2N[C@@H]2[C@H]1[C@H]1C=C[C@@H]2C1 | inactive: > 100 µM
64 | Cc1ccc(NC(=O)CC2SC(Nc3cccc(Cl)c3C)=NC2=O)cc1 (stereo not drawn) | inactive: > 100 µM
65 | CC1=NNC(=O)C1C1CC(c2c[nH]c3ccccc23)=NNC1=S (stereo not drawn) | inactive: > 100 µM
66 | O=C(CN1CCN(c2cccc(Cl)c2)CC1)N1CCc2c([nH]c3ccccc23)C1c1cccnc1 (stereo not drawn) | inactive: 33.3 µM
67 | C1CC[C@H]2SSC3CCCC[C@H]3SSC2C1 (stereo partly drawn) | inactive: > 100 µM
68 | O=C(CCc1ccccc1)NS(=O)(=O)c1ccccc1 | inactive: > 100 µM
69 | O=C1C(O)=C(Cl)C(=O)c2c(O)ccc(O)c21 | inactive: > 100 µM
70 | Cc1ccc(S(=O)(=O)N/N=C(\c2nc3ccc([N+](=O)[O-])cc3nc2O)C(O)c2ccccc2Cl)cc1 (stereo not drawn) | inactive: > 100 µM
71 | CC(=O)OC1=C2CC[C@@H]3C(CC[C@@]4(C)C3CC[C@@H]4OC(C)=O)[C@@]2(C)CC(C#N)C1=O (stereo partly drawn) | inactive: 22 µM
72 | CC1CCCC(C(=O)/C(=C/c2cccc(Cl)c2)C(=O)C(=O)O)C1 (stereo not drawn) | inactive: > 100 µM
73 | O=C(/C=C\c1ccsc1)c1ccccc1 | inactive: 13.7 µM
74 | COc1cc2c(cc1OC)C(=O)C1(C2)[C@H](c2ccccc2)C2C(=O)c3cc(OC)c(OC)cc3C2[C@H]1c1ccccc1 (stereo partly drawn) | inactive: > 100 µM
75 | CC(C)[Si](OC1=C(C(=O)N(C)c2ccccc2Cl)CCC1)(C(C)C)C(C)C | inactive: 16.4 µM

Row | SMILES | GI50
76 | NNC(=O)C(O)C(O)C(O)CO (stereo not drawn) | inactive: > 100 µM
77 | CCOC(=O)c1nc2ccc(C(F)(F)F)cc2nc1Nc1ccc(OC)c(OC)c1 | inactive: > 100 µM
78 | Cc1c(Cl)c(C)c(Cl)c(O)c1Cl | inactive: 50.6 µM
79 | O=[N+]([O-])c1ccc(C2ON=C(c3ccccc3)N2C23CC4CC(CC(C4)C2)C3)cc1 (stereo not drawn) | inactive: > 10 µM
80 | CC1(C)[C@H]2CC[C@]1(C)[C@H](OC(=O)NNC(=O)O[C@@H]1C[C@@H]3CC[C@@]1(C)C3(C)C)C2 | inactive: 17.3 µM
81 | CC1C(=O)N(c2ccccc2)NC12CCCc1ccccc12 (stereo not drawn) | inactive: > 100 µM
82 | N#Cc1sc2c(c1OC(=O)c1ccco1)c(=O)n(-c1ccccc1)c(=S)n2-c1ccccc1 | inactive: 97.5 µM
83 | CCCCCCCC(CC(=O)O)OC(=O)CC(CCCCCCC)OC1OC(C)C(O)C(O)C1OC1OC(C)C(O)C(O)C1O (stereo not drawn) | inactive: > 100 µM
84 | Cc1cc2c(c(C#N)c1C)NC(=O)CCC2=O | inactive: > 100 µM
85 | CC(=O)OCC1OC(n2nc(Cc3ccccc3)c(=S)[nH]c2=S)C(OC(C)=O)C(OC(C)=O)C1OC(C)=O (stereo not drawn) | inactive: 28.8 µM
86 | CSc1nc2c(N)ncnc2n1C | inactive: > 100 µM
87 | COC(=O)C1OC(SCCN)C(O)C(O)C1O (stereo not drawn) | inactive: > 100 µM
88 | COc1ccc2c(c1)Cc1c-2[nH]c2cc3c(cc2c1=O)OCO3 | inactive: 25.6 µM
89 | COCN1CCN=c2c1c1c3c(c4ccccc4n23)CCC1 | inactive: > 100 µM
90 | CCCCCCCCCCCCCCCCCC(CCCCCCCCCCCCCCCCC)OP(=O)(O)O | inactive: > 100 µM
91 | O=[As]O | inactive: > 100 µM
92 | CCCCCCCCCCCCCC/C(C(=O)O)=C(\C)C(=O)O | inactive: > 100 µM
93 | CC(=O)OC1[C@H]2c3cc4c(cc3CN3CCC(C[C@@H]1OC(C)=O)C23)OCO4 (stereo partly drawn) | inactive: > 75 µM
94 | CC(=O)O[C@H]1C=CC(=O)C(C)CC1C (stereo partly drawn) | inactive: > 100 µM
95 | COc1cccc2c1C(=O)c1c(O)c3c(c(O)c1C2=O)CC(O)(C(O)CO)CC3OC1CC(N2CCOCC2)C(O)C(C)O1 (stereo not drawn) | active: 0.00269 µM
96 | O=C(NO)c1ccc(O)c(O)c1 | inactive: > 100 µM
97 | Clc1ccc2c(NCCNc3ccnc4cc(Cl)ccc34)ccnc2c1 | inactive: 15.3 µM
98 | CCc1ccc(/C=C\c2cc(OC)c(OC)c(OC)c2)cc1 | active: 0.118 µM
